SMILES strings stand for the structures. The whole screen tested about 150,000 compounds, of which about 540 (0.36%) showed an effect of 50% or more. The list shows a part of the results.

Results on 86 compounds are retold here after ChEMBL document CHEMBL4888484, “Replenishing the malaria drug discovery pipeline: Screening and hit evaluation of the MMV Hit Generation Library 1 (HGL1) against asexual blood stage Plasmodium falciparum ,using a nano luciferase reporter read-out” (2022).

The assay deals with Plasmodium falciparum. Put plainly: Primary screen in NF54 nanoGlo assay, in single point, at 2uM, 72h; a lower Z score goes with more inhibition. Format: functional, Erythrocyte. To be noted: timepoint 72 hour.
For the compound `CCCCS(=O)(=O)Nc1ccc(NS(=O)(=O)CCCC)c(Cl)c1`, the % Inhibition (as a rule, the relative decrease from the control value, in per cent) is recorded as 5% and the Z score is -0.66.
With `CC(=O)N[C@H]1CCN(C(=O)NCC(C)(C)c2ccc(C)cc2C)C1`, the “% Inhibition” value is listed as 28% and the Z score was -3.12.
For `Cc1ccc(C)n1-c1ncc(Br)cn1`, the “% Inhibition” value is -10% and the Z score came out at 1.44.
In the case of `CC[C@@](C)(C#N)NC(=O)c1cccc(C#N)c1`, the “% Inhibition” value was -2% and the Z score stood at 0.32.
The matching figures for `CCOc1ccc([C@@H]2C[C@H](c3cccc(Br)c3)n3nnnc3N2)cc1Cl`: -2% and 0.25.
On to `CCOc1cc(C(=O)N(C)c2ccc(N(C)C)cc2)ccn1`, for which the “% Inhibition” value was -4% and the Z score amounted to 0.62.
The matching figures for `CN1CCN(C(=O)CCCCc2c[nH]nn2)C[C@@]12CCOC2`: -14% and 2.26.
Regarding `CN(C)S(=O)(=O)c1ccc2nc(NC(=O)c3cccc4ccccc34)sc2c1`, the “% Inhibition” value is given as -3% and the Z score is listed as 0.3.
Regarding `Cc1c(NC(=O)c2ccc(-c3ccccc3)o2)cccc1-c1nc2ncccc2o1`, the “% Inhibition” value was -9% and the Z score was 1.04.
For `CC1CC2CCCCC2N1C(=O)NCCCCN1CCOCC1` (configuration not stated), the “% Inhibition” value is on record as -7% and the Z score is reported as 0.95.
For the compound `O=C(c1cc(-c2ccccc2)[nH]n1)N1CCn2c(nnc2C(F)(F)F)C1`, the “% Inhibition” value is -6% and the Z score was found to be 0.88.
`Cc1cc(C(=O)N(Cc2ccccn2)c2ccc(Cl)cc2)c2c(C)noc2n1`: the “% Inhibition” value is on record as -30% and the Z score was 3.48.
Regarding `Cc1cccc(Cn2cnc(NC(=O)c3cc(C)nc4c3cnn4C)n2)c1`, the “% Inhibition” value stood at 30% and the Z score is reported as -3.44.
For `OCCN(Cc1ccccn1)C1CCCCC1`, the “% Inhibition” value was -11% and the Z score is reported as 1.48.
For the compound `O=S(=O)(c1cccs1)N1CCN(c2cnn3c(C4CC4)nnc3c2)CC1`, the “% Inhibition” value is -2% and the Z score was found to be 0.29.
With `CC1(O)CCN(C(=O)NC2CCC(Oc3ncccc3Cl)CC2)CC1` (configuration not stated), the “% Inhibition” value is listed as -15% and the Z score is on record as 1.47.
With `Cc1ccc(-c2sc(NC(=O)c3ccncc3)nc2-c2ccccc2)cc1C`, the “% Inhibition” value is on record as -2% and the Z score is listed as 0.26.
On to `COc1ccc(CCC(=O)N2CCC3C(CCCN3C)C2)cc1F` (configuration not stated), for which the “% Inhibition” value turned out to be 7% and the Z score is on record as -1.43.
With `O[C@H]1CNCC[C@@H]1Nc1cc(-c2ccccc2)nc2ccccc12`, the “% Inhibition” value was found to be 35% and the Z score is listed as -8.29.
Regarding `C[C@@H](C(=O)NCCCc1nccs1)N1CCN(C)CC1`, the “% Inhibition” value is recorded as -1% and the Z score is listed as 0.17.
As to `CCN(CCCN1CCCC1)S(=O)(=O)c1cnccc1C`, the “% Inhibition” value is -4% and the Z score is listed as 0.51.
Consider `CCN1CCN(C(=O)c2cccc(Nc3c(Oc4cccc(C)c4)cnn(-c4cccc(Cl)c4)c3=O)c2)CC1`, for which the “% Inhibition” value is -13% and the Z score amounted to 2.15.
Take `CS(=O)(=O)NC(=O)[C@H]1C[C@@H]1C1CCC1`: the “% Inhibition” value is on record as -13% and the Z score amounted to 2.27.
As to `Cc1nc([C@@H](c2ccc(F)cc2)C(C#N)C#N)c(O)[nH]1`, the “% Inhibition” value was -2% and the Z score came out at 0.28.
The matching figures for `O=C(O)[C@H]1CCN(C(=O)Cn2c(COc3ccccc3)nc3ccccc32)C1`: -10% and 0.93.
Regarding `COCc1cn([C@H]2CO[C@H]3[C@@H]2OC[C@@H]3NC(=O)c2ccc(OC)cc2)nn1`, the “% Inhibition” value was -1% and the Z score stood at 0.17.
On to `Cc1nnc(CN(C)Cc2c[nH]nc2-c2ccc(-c3ccccc3)cc2)o1`, for which the “% Inhibition” value was determined as 5% and the Z score is on record as -0.55.
The matching figures for `COCCn1c(C)cc(=O)c(C(=O)N2CCN(c3cc(C)ccc3C)CC2)c1CC1CCCC1`: 17% and -2.12.
With `CC1CC(N2C(=O)NC3(Cc4ccccc4C3)C2=O)C1` (configuration not stated), the “% Inhibition” value was -7% and the Z score was determined as 0.74.
Take `Fc1cnc2[nH]c(-c3cccnc3)nc2c1`: the “% Inhibition” value stood at 4% and the Z score is listed as -0.55.
On to `COC(=O)CN1CCCN(Cc2cccc3[nH]ccc23)CC1`, for which the “% Inhibition” value is on record as -5% and the Z score amounted to 0.49.
The matching figures for `COc1cc(CN2CC(=O)N(C)C3(CCOCC3)C2)ccc1F`: -4% and 0.79.
For `CCn1ccc2ccc(CN3CCC[C@@](O)(CN(C)C)C3)cc21`, the “% Inhibition” value was found to be 10% and the Z score is on record as -1.84.
`CCCCS(=O)(=O)NCc1nc(-c2ccco2)n[nH]1`: the “% Inhibition” value was found to be 0% and the Z score is on record as 0.09.
In the case of `Clc1ccccc1-c1cc(CN2CCC[C@@H]2Cn2cncn2)no1`, the “% Inhibition” value is listed as -16% and the Z score was 1.7.
Turning to `CC[C@H]1COCCN1CCC(=O)NCc1ccc(F)cc1`, the “% Inhibition” value was -4% and the Z score worked out at 0.76.
On to `O=C(NC[C@H]1CCCO1)c1cccnc1Oc1cccc(NS(=O)(=O)c2ccc(Cl)s2)c1`, for which the “% Inhibition” value stood at 0% and the Z score is given as -0.07.
Regarding `Cc1ccc(CNC(=O)c2cccc(-c3nc4cccnc4n3C)c2)cc1`, the “% Inhibition” value is on record as -8% and the Z score amounted to 1.1.
Take `CCOC(=O)CCNC(=O)Nc1ccccn1`: the “% Inhibition” value is reported as -7% and the Z score is on record as 1.06.
Regarding `CC(C)C[C@@H](CN(C)C)NC(=O)c1c[nH]nc1-c1ccoc1`, the “% Inhibition” value is -7% and the Z score is 1.25.
For the compound `Cc1c(C(=O)NC2CCCCC2)sc2ncnc(N(C)c3ccccc3)c12`, the “% Inhibition” value is given as -15% and the Z score was found to be 2.5.
As for `CC(C)C[C@@H](NS(=O)(=O)c1cnc(-c2ccccc2)nc1)C(=O)O`, the “% Inhibition” value is recorded as -12% and the Z score came out at 1.33.
Regarding `CN(Cc1ccccc1)C(=O)[C@@H]1Cc2[nH]cnc2CN1Cc1ccc(C(=O)O)cc1`, the “% Inhibition” value is reported as 6% and the Z score is recorded as -0.7.
As for `Cn1cc(S(=O)(=O)NCCCc2cc(N)n(-c3ccccc3)n2)cc1C(N)=O`, the “% Inhibition” value came to 0% and the Z score is listed as 0.06.
Consider `CCN=C(NCCOC1CCCCCC1)NCc1nc(C2CC2)no1`, for which the “% Inhibition” value was -15% and the Z score came out at 2.17.
As to `CC(C)c1nnc(CNC(C)(C)c2ccc(F)cc2Cl)o1`, the “% Inhibition” value is given as 6% and the Z score is on record as -0.81.
For the compound `Cc1cc(N2CC(Cn3nc(C(C)(C)C)ccc3=O)C2)n2nc(C)cc2n1`, the “% Inhibition” value is -9% and the Z score worked out at 1.31.
As for `CNC(=O)Cn1c(Cc2ccccc2)nn(-c2ccc(Cl)cc2)c1=O`, the “% Inhibition” value was -3% and the Z score turned out to be 0.35.
As for `Cn1ncc2c(N3CCN4CCC[C@H]4C3)nc(CCc3ccccc3)nc21`, the “% Inhibition” value is given as -8% and the Z score is 1.48.
In the case of `O=C1OCC2(CCN(Cc3cccc4cc[nH]c34)CC2)O1`, the “% Inhibition” value came out at 7% and the Z score is on record as -0.91.
The matching figures for `O=C(NC1CCC(F)(F)CC1)[C@@H]1CCCO1`: -24% and 3.04.
The matching figures for `CS(=O)(=O)c1ccc(-c2nnc(NC(=O)c3ccc(-c4ccccc4)cc3)o2)cc1`: 20% and -2.59.
For the compound `O=C(C1CC2C=CC1C2)N1CCN(Cc2ccncc2)CC1` (configuration not stated), the “% Inhibition” value is -3% and the Z score worked out at 0.48.
The matching figures for `COc1ccc(Cl)cc1NC(=O)N1CCC2(CC1)CN(C)C[C@@H]2c1nnc(C)o1`: -2% and 0.28.
Consider `COc1ccccc1Cc1nc([C@H]2CCOC2)n(CC(F)(F)F)n1`, for which the “% Inhibition” value was -3% and the Z score worked out at 0.35.
The matching figures for `C[C@@H](NC(=O)c1ncoc1C1CC1)C1CCCC1`: -8% and 0.97.
The matching figures for `CCCc1ncncc1C(=O)NCC1(CO)CCOCC1`: -7% and 1.35.
The matching figures for `CC(C)c1noc(-c2cccn3c(CNC(=O)C4CCCCC4)nnc23)n1`: -7% and 1.41.
`CCc1cc(C(=O)NCc2ccco2)no1`: the “% Inhibition” value is 2% and the Z score is reported as -0.23.
The matching figures for `Clc1ccc2oc(NCc3cccnc3)nc2c1`: -2% and 0.4.
For the compound `CCc1noc(CC)c1CNC(=O)Nc1ccc2c(c1)CCCO2`, the “% Inhibition” value is 4% and the Z score is -0.82.
The matching figures for `COC1(CO)CCN(c2nnnn2Cc2cccc(Cl)c2)CC1`: -7% and 0.96.
Turning to `O=C(O)C[C@H]1CNCCN(C(=O)c2cccc(Oc3ccccc3)c2)C1`, the “% Inhibition” value is recorded as 4% and the Z score was -0.81.
On to `CS(=O)(=O)N[C@H]1C[C@@H]2C[C@H]1CN2C(=O)c1ccccc1C(F)(F)F`, for which the “% Inhibition” value is listed as -8% and the Z score came to 1.15.
Turning to `O=C(NC[C@H]1CCS(=O)(=O)C1)c1ccc2sccc2c1`, the “% Inhibition” value was determined as 2% and the Z score is reported as -0.33.
As for `COC[C@H](C)N1Cc2ccc(O)cc2C1`, the “% Inhibition” value is reported as -4% and the Z score was 0.78.
In the case of `CC(C)NC(=O)c1ccc2nc3ccccc3c(=O)n2c1`, the “% Inhibition” value is -9% and the Z score stood at 1.62.
`C[C@H]1Cc2ccccc2N1C(=O)c1ccc2c(c1)CCC(=O)N2`: the “% Inhibition” value was 0% and the Z score is recorded as -0.01.
For `Cn1cnnc1CCC(=O)NC[C@@]1(C)CCCO1`, the “% Inhibition” value was -7% and the Z score is listed as 1.34.
For `Cc1cc(C(=O)NCC2CCc3ccccc3CC2)oc1C(=O)O`, the “% Inhibition” value is reported as -26% and the Z score is given as 2.59.
For the compound `C=Cc1ccc(S(=O)(=O)N2CCOC[C@@]23CCOC3)cc1`, the “% Inhibition” value is -14% and the Z score was determined as 2.4.
On to `COc1ccc(-n2nc(C(=O)Nc3ccc(F)cc3)c(=O)n(Cc3ccccc3)c2=O)cc1`, for which the “% Inhibition” value worked out at 4% and the Z score is -0.36.
`CC(=O)Nc1cccc(C(=O)N2CC3CC2CO3)c1` (configuration not stated): the “% Inhibition” value is -9% and the Z score amounted to 1.01.
For the compound `CC[C@H](NC1CCN(c2cc(C)nc(C)n2)CC1)c1ccc2c(c1)CCO2`, the “% Inhibition” value was -8% and the Z score stood at 0.97.
As for `CC1(NC(=O)CNC(=O)NC2CC2)CCCCCC1`, the “% Inhibition” value is reported as -13% and the Z score was determined as 1.97.
Regarding `CC(C)CN(C(=O)c1ccc(Cl)c(S(=O)(=O)N2CCCCCC2)c1)C1CC1`, the “% Inhibition” value amounted to 4% and the Z score was -0.6.
As for `O=C1NCCc2c[n+](Cc3ccccc3)cn21`, the “% Inhibition” value is -14% and the Z score is recorded as 1.8.
Consider `CCn1ccc2ccc(CN3CCc4[nH]cnc4[C@@H]3C(=O)O)cc21`, for which the “% Inhibition” value is 13% and the Z score is reported as -1.86.
The matching figures for `Fc1ccc(-c2noc([C@@H]3Cc4[nH]cnc4CN3Cc3ccccc3)n2)cc1Cl`: -3% and 0.43.
For `CCCc1cc(CNS(=O)(=O)c2ccc(C)s2)on1`, the “% Inhibition” value was -4% and the Z score is reported as 0.56.
Regarding `CCC(C)(C)[C@@H]1CCCN1C(=O)c1coc(S(N)(=O)=O)c1`, the “% Inhibition” value is reported as -6% and the Z score is recorded as 1.06.
As for `Cc1nc(N2CCCC2C(=O)N2CCC(C(O)Cc3ccccc3)CC2)nc2ccccc12` (configuration not stated), the “% Inhibition” value is given as -15% and the Z score was determined as 1.71.
With `CC1(C)CC(CS(=O)(=O)N2CCC(CC(N)=O)CC2)C1`, the “% Inhibition” value is -9% and the Z score is 1.61.
Take `C[C@@H]1CN(c2ncccc2F)CC[C@]1(C)O`: the “% Inhibition” value is -19% and the Z score is recorded as 3.66.
For `O=C(c1ccc(F)cc1Cl)N1CC(N2CCc3ccccc3C2)C1`, the “% Inhibition” value is -1% and the Z score is reported as 0.22.
Turning to `COc1ccc(-c2cc3c(=O)n(Cc4nc(-c5ccccc5)oc4C)ccn3n2)cc1`, the “% Inhibition” value is -11% and the Z score amounted to 1.1.
